From the supplement of paper PMC10681739
In all, about 2,700 sequences were measured (“arbitrary fluorescence units”: median about 4,100, highest 2% from about 54,000 on). This is one part of the list.

Target: T1, ETS1 (UniProt P14921)
T1 sequence: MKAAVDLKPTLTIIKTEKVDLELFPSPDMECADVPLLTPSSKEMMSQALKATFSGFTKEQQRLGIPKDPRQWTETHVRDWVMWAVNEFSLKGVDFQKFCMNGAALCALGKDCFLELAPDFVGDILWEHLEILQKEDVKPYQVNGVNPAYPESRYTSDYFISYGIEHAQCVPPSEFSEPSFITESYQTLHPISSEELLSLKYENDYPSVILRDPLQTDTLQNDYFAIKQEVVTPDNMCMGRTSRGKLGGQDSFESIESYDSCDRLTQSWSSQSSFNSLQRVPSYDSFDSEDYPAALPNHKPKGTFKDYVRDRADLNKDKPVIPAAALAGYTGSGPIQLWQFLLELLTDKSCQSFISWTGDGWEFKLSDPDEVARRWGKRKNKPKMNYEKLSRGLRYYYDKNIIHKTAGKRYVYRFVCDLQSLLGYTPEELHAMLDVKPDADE
Test: ETS1 binding intensity (PBM fluorescence) (arbitrary fluorescence units); higher = stronger binding
Settings: ETS1 concentration 10 nM
Experimental: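 gcPBM on wild-type 36-bp genomic probes with two neighbouring ETS1 sites (4-24 bp apart). Recombinant human ETS1 (10 nM) was detected with anti-ETS1 antibody fluorescence. Values are medians over 3 replicate spots. The probes sit in constant array flanks that are not printed.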

| Sequence | ETS1 binding intensity |
| --- | --- |
| GTAGCAGACAGGAAGCTAGAAGAGGAAGTCTCAGAT | 8100 |
| GGGTGCGGAAACGCGGCAGCCGCGGCCGGATGCTGC | 2710 |
| CAACGACTCACACAGGAAGGAAGCCCCCATCTGGTT | 476 |
| TTCTTCACAAGCGGATGTCACTTCCTGCCTGTGACA | 17200 |
| GCAGCTTGAACATCCGGGAGCAGGAAAGTGGGAGGA | 12900 |
| ATGCCTTTTCCCGTTGTGGCTGGGACTTCCGCTCCG | 4400 |
| GGAGCTTCCTCCAAGACCAGGCTGCCACATCCTGTG | 6860 |
| GCACTTTCCTGGTAAATGCTCTCCTTAGGAAGTAAC | 728 |
| TTTTTACCACATCCTGGTAAGGGGGAAATGGCAGGT | 7900 |
| CGGCGTCAGCGGAACGGGCGGCTTCCGGCCGCGGCG | 8120 |
| TGAAGGCCAGGATGCGTGCTACCCGGATGTGTGCCC | 1090 |
| CCAACAGGAAGTGCTGTTTGGCTAGTTTCCTCCCAC | 16500 |
| TGCCTTTTTCGGAAACACCCCCTTCCTCTCTTGACA | 259 |
| TTCTTCACTTCCTCAGTCTATCTGTTTCCTCTGATT | 4770 |
| CCTCCCGGAAGCCGCTGGCCCGCGCCGGAAAAGGTG | 7300 |
| ACTGCCTTCCTGGCCTGGTGGTGAGAGGAAGTCGGG | 2260 |
| ACAGAGGAAGTTCGGGGCATGTCTGTCATCCGCCTG | 955 |
| CATACGTTTCCTATAATCTAACCACATCCTGTGACT | 4560 |
| TAAACTTTCCGTCCGCGCGCCACAGCCGGAACTATA | 740 |
| TGCCCTCACACAGGAAGTCAGGAAACCCAGGGGGCA | 8570 |
| TCTGCCTGGACATCCAGGCATTTCCGTACATCCTCT | 1080 |
| GTAATACTTCGGGGAAATGCAGGATGCAGCTGCTGC | 243 |
| TAGCATCCTTTCCTGTTTTTCTCCTTCCTGCTGCCT | 15600 |
| TTGCGCGGCACGGAAACTCACTTCCGGCCCTGCGCA | 22400 |
| AGGGGTGTCGACGGAAACTCGGAAATGGTCCCCTAG | 428 |

| Sequence | ETS1 binding intensity |
| --- | --- |
| CTCAGGAAAAAATGTTCCTAGGCAGGCAGGATGTGG | 231 |
| TGAGGCAGGAAAATCACTTGAAACCGGAAGGCTGAG | 562 |
| AAAAAACCGGAAATGCACCCACAGAGGAAGCAACCT | 37000 |
| CAACAGGATACGGTGAGTCATTTCAACTTCCTGCTA | 3410 |
| GTGAGAATGTTTCCTAACAGGAGGAAGTCTGCAACG | 240 |
| GCATGCTCAGGAAATGTCAGTGCTTCCCGTTCACCC | 986 |
| GGAGGAGGCGGAGGAAACCCGGAAAAGGGGCCGCGC | 382 |
| CGGACCGGAAGTTGGGGTGACGCAATTTCCGGCGCG | 54200 |
| TTCAAACAGGATGCCCCTGGAGCTCGGATGTTAGGG | 1770 |
| CGCGAGGGTGAATTTCCGTTTCCGGCGGTGTCCAAG | 16500 |
| TGAAAGCATCCTGACTCATCTAGACAGGATGCTGTG | 2530 |
| GCAGAAGCCGGAACTGAGATACAGGAAGTTGAGTCT | 8870 |
| TGCTAAACTTCCCTGGGCCCCATCAGGAAATGTGAA | 185 |
| CTGGCCACATCCCGCCACGCCCCGAGGAAATGCAAA | 1460 |
| CGGGAGAGACCATTTCCTCCTTCCTGGAGGGATGAG | 5920 |
| AAGTCAGGAAACAGTAGGTGCTGGAGAGGATGTGGA | 305 |
| AAAAAGGAAACTGTTCTCATGAAAGCAGGATGTTGG | 464 |
| TGACTTCAACAGGAAGCCACAGGATGTTCACCTGCA | 3210 |
| TGGGCAGGAAAGGGCCTGGCTCACACTTCCCCTCGA | 388 |
| GCCAACTTCCCGGCCTGCAGGGTGGCAGGAAGCCTG | 4450 |
| TAAGAGCGGAAGGTAGTGGACTTAAAGGAAATGATG | 783 |
| CTGTCAAGCAGGATGTCAGCAGTTTCCTTTGCATGA | 4720 |
| TTTACATCCTTCATTTCTTCAGCAAACATCCGGTCA | 17200 |
| CCGGCTGCCGAGCTTCCTCTTCCTGGCAAGCAGGCG | 2730 |
| GCTCAGGAAGTGTGCATTAGTCACACATTTCCCACA | 1830 |

| Sequence | ETS1 binding intensity |
| --- | --- |
| TAGGCAGGAAATGCGTACCCGGCCCGAGGAAGCAGG | 6200 |
| CTGATTTCCTTTTGCATCTCAAACCCGGGAAGTTTG | 7740 |
| AACAGTGCGTTTCCTTGAAAGCAGGAAATATTCTTA | 1310 |
| TCAGTGTTTCATTTCCTGCCGGATCTGATTCAGGTC | 20700 |
| CCAGACGAAGGAAGTGACATCACCTTCCTGGGTCTT | 827 |
| GCATCCATCCGGCGCTGGGGAGCAGAGGAAGTGGTC | 14900 |
| ACAGTAGCAGCTTCCTCAAGCAGGAAGTATGAAAAG | 3420 |
| TGACCTCACTTCCTGTCGCCGAGCGGAAGTGACGAA | 52200 |
| CACCCACATCCTCCCTGAGTCACTACATCCTTGAAA | 9640 |
| GCTGCAACTTCCGGTGCGCTAGCCGGAAACGCGGGT | 78200 |
| GGGGCCGGATCTGCTGCCTGACAGGGCTTCCTGGCC | 687 |
| GCGGCTGAGGAAATTACTGACACCGGAAGTCACGTG | 7110 |
| TCCCACACGCCCCGGAACAGGAAATATCCCGGGCCC | 1380 |
| ACAGCCCTCCCGGAAGTCGGCGGAAAAGGGGCCTGG | 14500 |
| ACCTTGAGCATGGCTTCCGGGAAGTTGCGGTTGAAG | 5120 |
| ACAGTGCGGAAGACAAGAGGCCTTAGGAAGTGGGAA | 191 |
| CCTCACGGCGGAATCTCAAGCACTTCCGCTTGGCAC | 8770 |
| CAGCTAGGCTTCCTTCTCCTCCCTTCCTGTGCCTCC | 1100 |
| CTCCTAACCAGGATGTTCACTGAGGATGTTAACACA | 1460 |
| ACTGGCAGGAAGGGCAGTTTTGGCAGGAAAAGCCAT | 991 |
| GCAACACCGGAAAAGGTCCGGCTGCTTCCGGTAAAA | 16200 |
| TGTAAGGAAATGGTTAGTCTATTTTTAGGATGTGGC | 195 |
| TTTGAGCAGGAAAACTACGCGACAGGAAGTGTATAC | 1750 |
| GGGGCCGGAAGCTTTCGGATAACAACTTCCGCTCGG | 20100 |
| GAGCTTGCTTCCTGTTAACCCAGGCATCCTGTGCAG | 29500 |

| Sequence | ETS1 binding intensity |
| --- | --- |
| GTGACAGGATGTTATAAGGCCCCTCTTTCCGGCTCT | 7350 |
| CGCAAGTGCGGAACTGCGTTTGTTTCCGGCGTGGGT | 2520 |
| TTCACTTCCCTCCTCCAAATCTCCCACTTCCTCTTG | 5960 |
| GGTCAGGAAGTAGGAGTCTGGCCTAACTTCCTTTCT | 4120 |
| TGTACTTCCGGAGCTAAGTTGCCTGAGAGGAAATGG | 49000 |
| GCCGCGGCGGAAGAGGCTCGGGGAGGAAGTTATTTG | 1880 |
| GGGAGGACTTCCTGGCTGAATTTGGGAAGGAAACAA | 15200 |
| CCCGTTTCCGTGTAATAGTCTTTCACAGGAAGTCAG | 8060 |
| AGAGCAGCCCCGGAACAGGAGCTTCCCGGCACCGGC | 171 |
| GTGAGTGCGTTTCCGCCGGTTTTTCCTGCCTGAGGA | 15000 |
| GACAGGAAGGCTACAGGCTGCCTGTGGCTTCCGTGT | 386 |
| AATTGTTTCCTTTGAAAAGCCATCACTTCCTCTCCT | 4750 |
| GGGCGGAAGGGAGGCCGCCCCGAGAGCCGGAAGCCT | 678 |
| TCCCAGCTGTCTGCTTCCTTCCTGTGTGTCATTCGT | 3230 |
| TTTCAACCTCACATTTCCCTTCCTCACTACCCTAGC | 264 |
| GAAAACATAGCACAGGAAGGAAGCTGTTGCACCATA | 572 |
| GAGGCAGGAAGCACTCATTCCATATCAGGAAGTGAT | 3790 |
| ACTTTGCAGACAGGAAGTAAAGGAAATGGGACCCCA | 13200 |
| GAACAAGGCCTTCCTGAAGCAATTTCCTGATTTGAC | 1860 |
| TGGCAGGATGGAGTGGGTGCAAGCAGGGGAAATGTC | 173 |
| AGGGGGGATGTGTGTGGCCAAGAGTCCGGAAATGGG | 2280 |
| CAGGCAGGAAGGCATCAGTGTGGCATTTCCTGTGTA | 4100 |
| CCCCTACTCTTCCGGGCAGCCCACTTCCGCGGCCAC | 9240 |
| TCTGCAGTTTCCTGATAAGTGTGTTTCCGGCTTTTG | 6480 |
| ACATAAGACATGAGGATGTCTTCCTGACTTGCGTCC | 208 |

| Sequence | ETS1 binding intensity |
| --- | --- |
| ACCTCAGGAAGCTCTGGCAGGGCTTTAGGAAGCGCA | 259 |
| TTGCTGCATCCGCAGGAGCCCAGGCGGAAGAGATGC | 4850 |
| CACCCAGGGAAGTGGAGCTACAGACAGGATGTTTCA | 491 |
| CAGATAATCACAGGAAGTCATTTCCTTTGGTGATCT | 6490 |
| TCAGCTGGCACTTCCCCTTGGTTTCCTGTTACATTT | 5390 |
| AAACTCATGAGGAAGCTAGTAGAGGAAGTGGGTCAT | 385 |
| CACAGGAAACGGTGTGAGGAGACTCCATTTCCCCAG | 8050 |
| CGGGAGGTTCCTGCCAATGCCGGGAGGAAGAGCAAC | 466 |
| CGCAGTGACTCATCCTGCCCCTTTCCGGTGAAGCCC | 3890 |
| AAAGCCAGGAAATGCCAGGGCTGGGAGGAAGCAGAA | 1770 |
| CCAGCGGAAACAGCCCTTCTCTGCCACTTCCTGTCC | 14000 |
| TGTCCCCAGAGGAAGCTCCCTCTTTCCTGTGCCTCC | 647 |
| GGTCCATCCGGAGCCACTCCGCGCCCCGGAAAAGCT | 7400 |
| GTGCTGCCATCCTGTGGCCATTGCAGGAAGTGTGCC | 1860 |
| CTTATCTTACTTCCTTATCACACTTCCTGCCCTGAG | 10600 |
| CCCCACCGACTTCCGGCTTTGTTTCCTCATCTGTAA | 52800 |
| TCCCATTTCCCGACGCCGCGCCCGGCTTCCGCTTTA | 4190 |
| GCTGTCAGCGCTTCCGAGGTCCGGAAGACCTGCCTA | 976 |
| ACGGCCGGAAAACGCTCCAGCGCGCCGGAAGTCCCG | 5390 |
| CCTAATGGTTTCCTCCCTTCTCTCTTCCTCCCTCTA | 2210 |
| CAGGCAGGAAGTGAAAGGGGCCTGCAGGAAGCCCCA | 8970 |
| TACCCGGAAGGTGCCGGGTTCGAGCCCGGAACGGCC | 353 |
| TGAGCTATTTGACTTCCGGTTTCCTGCCCCATTTAA | 63200 |
| AACTCTTCCTGACATGGAGGTCTCCACTTCCTGTCC | 8380 |
| GTAACCGGAAATAAAGACCTCCGATCTTCCGCCCCA | 28300 |
